In PubChem BioAssay AID624417 (National Center for Advancing Translational Sciences (NCATS), 2012):
Out of some 410,000 compounds screened, about 6,400 (1.6%) were called active. This list was built around the results that the source calls inconclusive (neither active nor inactive); the mix of calls is not that of the screen. Calls come from the whole dose curve; as a rule, active = well fitted inhibition curve with a large enough effect; inconclusive = small, poorly fitted or top-dose-only effect; inactive = no such curve, though single readings can be large or run the other way. Where the call is inconclusive, the potency comes from a doubtful curve fit.

target: Glucagon-like peptide 1 receptor (Homo sapiens) (UniProt P43220); assay: qHTS of GLP-1 Receptor Inverse Agonists (Inhibition Mode); conditions: HEK293 GLP-1R CRE-luciferase, luminescence, 24 h, GLP-1R form is constitutively active; series mostly up to 38.3 µM; note: nearly all actives have a fitted effect of over 55% in size
Sequence of UniProt P43220 (P43220 whole entry, looked up): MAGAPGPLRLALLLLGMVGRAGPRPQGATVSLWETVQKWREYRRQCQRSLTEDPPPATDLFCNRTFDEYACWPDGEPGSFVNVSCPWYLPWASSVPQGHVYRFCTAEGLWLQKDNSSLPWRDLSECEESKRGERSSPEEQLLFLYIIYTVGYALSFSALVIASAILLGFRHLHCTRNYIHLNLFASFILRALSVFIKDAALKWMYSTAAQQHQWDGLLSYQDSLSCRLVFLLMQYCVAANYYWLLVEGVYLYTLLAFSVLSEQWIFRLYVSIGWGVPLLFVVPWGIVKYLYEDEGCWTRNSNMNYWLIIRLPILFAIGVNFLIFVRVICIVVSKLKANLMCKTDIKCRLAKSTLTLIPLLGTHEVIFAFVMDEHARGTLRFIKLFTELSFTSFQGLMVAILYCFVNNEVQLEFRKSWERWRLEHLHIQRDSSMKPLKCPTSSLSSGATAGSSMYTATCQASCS
How it was run: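 HEK293 cells stably co-expressing constitutively active GLP-1R and a cAMP-responsive luciferase reporter were seeded in DMEM with 10% Nu serum, given compounds after 12 h, and incubated 24 h at 37 deg C. Luminescence was then read.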
Potency is the fitted concentration of half-maximal effect; tags give direction and shape of the fitted curve.

Potency, inconclusive:
CCN(Cc1ccccc1)C(=O)c1ccc(CNS(=O)(=O)c2ccc(C)cc2)cc1 28.2 µM [inhibitor, single point]
CCc1ccc(NC(=O)C(C)OC(=O)/C=C/c2ccc(O)c(OC)c2)cc1 (stereo not given) 31.6 µM [inhibitor, partial curve, poor fit]
Fc1ccccc1-c1nc(-c2ccc(Br)o2)no1 28.2 µM [inhibitor, single point]
Cc1ccc(SCC(=O)NCCC2=CCCCC2)cc1 20 µM [inhibitor, single point]
O=C(CCc1ccccc1)NC(NC(=S)Nc1ccc(Cl)cc1)C(Cl)(Cl)Cl (stereo not given) 2.24 µM [inhibitor, full curve, poor fit]
Cc1ccccc1OCCSCc1nc2ccccc2[nH]1 11.2 µM [inhibitor, partial curve, poor fit]
CCOCCCNC(=S)N1C2CCC1CC(NC(=O)NC13CC4CC(CC(C4)C1)C3)C2 (stereo not given) 12.6 µM [inhibitor, partial curve]
Cc1ccc(S(=O)(=O)Nc2nc(C)c(NC(=O)Nc3ccc(Cl)cc3Cl)s2)cc1 28.2 µM [inhibitor, single point]
Cc1oc(-c2ccc(Cl)cc2)nc1CS(=O)CC(=O)NC(C)c1ccccc1 (stereo not given) 3.98 µM [inhibitor, partial curve, poor fit]
CCC(C)(C)n1nnnc1CN1CCC(O)(c2cccc(C(F)(F)F)c2)CC1 12.6 µM [inhibitor, single point]
Nc1cc(C(F)(F)F)ccc1NCCc1ccccn1 5.01 µM [inhibitor, full curve, poor fit]
Cc1ccc(-c2nc3[nH]c(=O)cc(NC(=O)C(C)C)n3n2)cc1 3.16 µM [inhibitor, full curve]
CC(Cc1cccs1)NC(=O)Nc1ccc(Cl)c(Cl)c1 (stereo not given) 10 µM [inhibitor, single point]
Cc1cccc(NC(=O)CCSc2nnc(Cc3ccccc3)o2)c1 10 µM [inhibitor, partial curve]
COc1ccc(NC(=O)c2cnn(-c3ccc(C)cc3)c2-n2cccc2)cc1Cl 7.94 µM [inhibitor, partial curve]
CCCCc1ccc(NC(=S)N2CCN(C)CC2)cc1 12.6 µM [inhibitor, single point]
CC(C)(C)c1ccc(CNC(=O)C2CCCN2C(=O)Nc2ccccc2)cc1 (stereo not given) 11.2 µM [inhibitor, partial curve, poor fit]
O=C(c1cc(-c2ccc(Cl)cc2Cl)on1)N1CCCCCC1 20 µM [inhibitor, single point]
Cc1cccc(NC(=O)CCc2ccc(S(=O)(=O)NC3CCCCC3)cc2)c1 20 µM [inhibitor, single point]
COc1ccc(N2CCN(CCCNC(=O)C3COc4ccc(OC)cc4C3)CC2)cc1 (stereo not given) 10 µM [inhibitor, partial curve, poor fit]
COc1cccc(C(=O)NC2CCCc3c2cnn3-c2ccc(C)c(C)c2)c1OC (stereo not given) 11.2 µM [inhibitor, single point]
CC(C)CN(CC(C)C)C(=O)c1cc(S(=O)(=O)N2CCCCC2)c[nH]1 10 µM [inhibitor, single point]
COc1ccc(-c2cc(C)no2)cc1S(=O)(=O)NCc1ccc(OC(C)C)cc1 10 µM [inhibitor, single point]
Cc1ccc(CNC(=O)c2ccc(CS(=O)Cc3ccccc3Cl)o2)cc1 (stereo not given) 17.8 µM [inhibitor, partial curve, poor fit]
CCCSc1ccc([C@@H]2[C@H]3C(=O)N(CC)C(=O)[C@H]3[C@]3(C(=O)OC)CCCCN23)cc1OC 28.2 µM [inhibitor, single point]
CCc1ccc(NC(=O)C2CCN(S(=O)(=O)c3c(C)noc3/C=C/N(C)C)CC2)cc1 28.2 µM [inhibitor, single point]
COc1ccc(N(C(=O)Cn2cnc3ccccc32)C(C(=O)NC2CCCCC2)c2ccccc2)cc1 (stereo not given) 15.8 µM [inhibitor, single point]
COc1ccc(OC)c(C2CC(=O)c3c([nH]c(C(=O)OC4CCC(C)CC4)c3C)C2)c1 (stereo not given) 14.1 µM [inhibitor, partial curve, poor fit]
C/C(=N\NC(=O)c1cc2ccccc2cc1O)c1cc2ccccc2o1 7.94 µM [inhibitor, partial curve, poor fit]
CN(C(=O)c1ccccc1OCc1ccc(Cl)cc1)c1ccccc1 3.55 µM [inhibitor, full curve]
COC(=O)C1C(=O)C(C(=O)/C=C/c2ccccc2)C(=O)CC1(C)C (stereo not given) 11.2 µM [inhibitor, single point]
CC1CCCN(C(=O)CN2CCC(c3nc4ccc(Cl)cc4[nH]3)CC2)C1 (stereo not given) 8.91 µM [inhibitor, partial curve]
O=C(Nc1nc(-c2ccccn2)cs1)Nc1ccc(F)cc1F 22.4 µM [inhibitor, single point]

Potency, inactive:
CCCNC(=O)c1ccc2c(=O)c(O)c(-c3ccc(F)cc3)[nH]c2c1
Cc1c(-c2nsc(NC(=O)c3ccc(Cl)cc3)n2)nnn1-c1ccc(C(C)C)cc1
Cc1cccc(Nc2nnc(-n3nc(C)cc3C)c3ccccc23)c1
CC(C)=CCC/C(C)=C/C=N/NC(=O)c1cccc([N+](=O)[O-])c1
COc1ccc2c(CNCc3ccc(Cl)cc3)c(C(=O)O)n(Cc3ccccc3C)c2c1
Cc1ccc(-c2cc(N)n3nc(-c4ccc(C)cc4)cc3n2)cc1
Cc1ccc(C(=O)NNC(=O)c2ccc(NS(=O)(=O)c3cccs3)cc2)s1
